# Reference: the supplement of paper PMC9135407
# Where “and” joins values, the source holds several entries; their conditions need not be identical. Identical values can stand only once. Counter-ions that a name gives are not always drawn. Hit rate of the full screen: of about 5,800 compounds, about 620 (11%) showed activity.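 Rule for the calls: active = score above a cut-off or among the top three wells of a plate; in these data no inactive exceeds 0.85.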 This is a selection; strong and weak results do not stand in their true shares.
# Test system: primary human hepatic stellate cells (donor 1)
# Assay: scaled lipid accumulation score (0 = DMSO-like, 1 = nortriptyline-like); higher = stronger HSC inactivation (lipid re-accumulation), active = hit call of the paper
# Conditions: 48 h
# [1] = library stock concentration: 10 mM
# [2] = library stock concentration: 1 mM
# [3] = library stock concentration: 80 uM
# [4] = library stock concentration: 400 uM
# [5] = library stock concentration: 2 mM
smiles,measurement,setting,value
COCC(=O)O[C@]1(CCN(C)CCCc2nc3ccccc3[nH]2)CCc2cc(F)ccc2[C@@H]1C(C)C [Mibefradil dihydrochloride],scaled lipid accumulation score,[1],inactive: ≤ -0.055 and inactive: 0.501
CC(C(=O)Nc1cccc(/N=C/c2c(O)ccc3ccccc23)c1)c1ccccc1 (centres undefined) [Salermide],scaled lipid accumulation score,[2],inactive: ≤ 0
"CC(C)NCC(O)c1cc(O)cc(O)c1 (centres undefined) [Metaproterenol sulfate, orciprenaline sulfate]",scaled lipid accumulation score,,inactive: ≤ 0
CC(C)NCC(O)c1cc(O)cc(O)c1 (centres undefined) [Metaproterenol],scaled lipid accumulation score,library stock concentration: 9.5 mM,inactive: 0.026
same,scaled lipid accumulation score,[1],inactive: ≤ 0
CC(C)NCC(O)c1cc(O)cc(O)c1 (centres undefined) [Metaproterenol hemisulfate],scaled lipid accumulation score,[1],inactive: ≤ -0.055
"CC(=O)/C(C)=N/O [2,3-Butanedione monoxime]",scaled lipid accumulation score,[1],inactive: 0.081
CCCn1cnc2c1c(=O)n(CCCCC(C)=O)c(=O)n2C [Propentofylline],scaled lipid accumulation score,[1],inactive: ≤ 0
CCCCCCCCCCCCCCSCC(=O)O [Tetradecylthioacetic acid],scaled lipid accumulation score,[1],inactive: ≤ 0
"Cl.OCCNCCCOc1cccc(Cl)c1Cl [2,3-DCPE hydrochloride]",scaled lipid accumulation score,[1],active: 1.14
CCc1cc2c(c(CC)n1)CCC(=O)N2Cc1ccc(-c2ccccc2-c2nn[nH]n2)cc1 [ZD 7155 hydrochloride],scaled lipid accumulation score,[1],inactive: 0.009
O=C(O)CN(CCN(CC(=O)O)CC(=O)O)CCN(CC(=O)O)CC(=O)O [Pentetic acid],scaled lipid accumulation score,,inactive: ≤ 0
same,scaled lipid accumulation score,library stock concentration: 5.1 mM,inactive: 0.67
O=C(O)CN(CCN(CC(=O)O)CC(=O)O)CCN(CC(=O)O)CC(=O)O [Diethylenetriaminepentaacetic acid],scaled lipid accumulation score,[1],inactive: 0.134
C#CCN(C)CCCOc1ccc(Cl)cc1Cl [Clorgyline hydrochloride],scaled lipid accumulation score,,inactive: 0.043
same,scaled lipid accumulation score,[1],inactive: 0.196
C#CCN(C)CCCOc1ccc(Cl)cc1Cl,scaled lipid accumulation score,[1],inactive: ≤ 0
Cn1c(=O)c2c(ncn2CCO)n(C)c1=O [Etofylline],scaled lipid accumulation score,,inactive: ≤ 0
CCc1cnn2c(NCc3ccc[n+]([O-])c3)cc(N3CCCC[C@H]3CCO)nc12,scaled lipid accumulation score,library stock concentration: 3.33 mM,inactive: 0.422
same,scaled lipid accumulation score,[1],inactive: 0.448
CCc1cnn2c(NCc3ccc[n+]([O-])c3)cc(N3CCCC[C@H]3CCO)nc12 [Dinaciclib],scaled lipid accumulation score,[3],inactive: 0.104
same,scaled lipid accumulation score,[4],inactive: 0.036
same,scaled lipid accumulation score,[5],inactive: 0.16
same,scaled lipid accumulation score,[1],inactive: 0.433
COC(C)(C)CCCC(C)C/C=C/C(C)=C/C(=O)O (centres undefined) [Methoprene acid],scaled lipid accumulation score,[2],inactive: ≤ -0.021
O=C1NC(=O)[C@@H](c2cn3c4c(cccc24)CCC3)[C@@H]1c1c[nH]c2ccccc12 [Tivantinib],scaled lipid accumulation score,[3],inactive: ≤ -0.009
same,scaled lipid accumulation score,[4],inactive: 0.071
same,scaled lipid accumulation score,[5],inactive: ≤ -0.009
same,scaled lipid accumulation score,[1],inactive: 0.169
